Reference: the supplement of paper PMC3334620
Whole data set: some 33,000 sequences, median “E-score (-0.5 to 0.5)” near -0.017, cut for the highest 2% near 0.3. Some of the results follow.

Biological target: T1, Sut1 (UniProt P53032)
T1 sequence: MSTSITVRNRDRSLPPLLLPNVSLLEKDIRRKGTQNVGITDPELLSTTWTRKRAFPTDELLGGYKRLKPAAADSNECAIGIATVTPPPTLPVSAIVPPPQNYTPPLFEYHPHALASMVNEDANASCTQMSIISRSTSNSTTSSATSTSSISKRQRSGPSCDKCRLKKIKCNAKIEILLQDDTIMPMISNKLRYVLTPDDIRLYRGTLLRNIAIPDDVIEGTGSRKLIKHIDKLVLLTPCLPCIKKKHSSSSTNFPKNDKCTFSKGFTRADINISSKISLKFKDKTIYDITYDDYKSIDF
Assay: PBM E-score (8-mer binding enrichment) (E-score (-0.5 to 0.5)); higher = stronger / more preferred TF binding; most listed sequences are background and not binding sites
Conditions: protein concentration: 200 nM; construct: GST-full length
In short: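 Detection of bound protein used fluorescent anti-GST, with scans normalised by masliner. The proteins were GST-tagged yeast transcription factors applied at about 100-200 nM to universal all-10-mer Agilent arrays made double-stranded by primer extension. Each ungapped eight-base word, pooled with its reverse complement, was scored with an E-score from the Universal PBM Analysis Suite.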

First: CACTTCAG
Second: AATCCTCT
The “PBM E-score” value of the first is higher: 0.171 for the first, -0.185 for the second.

Going from ACCGTACT to GGTTGGGA, the “PBM E-score” value falls from 0.108 to -0.273.

Compared with CATATCGA, CAGGCGGC is lower in “PBM E-score” value: -0.081 for the first, -0.29 for the second.

First: CTCAACAC
Second: CCACTCCC
The “PBM E-score” value of the first is higher: 0.147 for the first, -0.254 for the second.

Compared with ATCTATAC, AACACAGC is lower in “PBM E-score” value: 0.17 for the first, 0.159 for the second.

First: CGGCTTGC
Second: ACCCACCC
The “PBM E-score” value of the first is higher: 0.105 for the first, -0.125 for the second.

Compared with CTCCCGCA, GACATCAA is higher in “PBM E-score” value: 0.0651 for the first, 0.0833 for the second.

First: GGTAGTAC
Second: AACACAAG
The “PBM E-score” value of the first is lower: -0.154 for the first, 0.0493 for the second.

Compared with TGAAAACA, AGAAAGCA is higher in “PBM E-score” value: 0.0895 for the first, 0.194 for the second.

First: AAGGTATG
Second: ATTCGAGA
The “PBM E-score” value of the first is higher: 0.105 for the first, -0.0266 for the second.

Compared with ACTTGTGA, GGAAGGAA is higher in “PBM E-score” value: 0.022 for the first, 0.0279 for the second.

Compared with AGTCCCTC, GCCCGAAC is higher in “PBM E-score” value: -0.194 for the first, -0.00475 for the second.

Going from ACTCCGTC to AAGTGGGA, the “PBM E-score” value falls from 0.48 to 0.126.

Compared with CTCTCGGC, CCTCAACC is lower in “PBM E-score” value: -0.0324 for the first, -0.19 for the second.

Compared with AGCTAGCC, GAGAAAGA is higher in “PBM E-score” value: -0.173 for the first, 0.22 for the second.

Compared with TCTAGGAA, CGAAAACC is higher in “PBM E-score” value: -0.0256 for the first, 0.0693 for the second.

Going from CGTTAACC to AATATTAT, the “PBM E-score” value rises from 0.00056 to 0.319.

Compared with GACTGAAA, AGCCATCA is lower in “PBM E-score” value: 0.145 for the first, 0.0518 for the second.

First: AGGCCCTA
Second: AGATACTA
The “PBM E-score” value of the first is lower: -0.0648 for the first, -0.0165 for the second.

Compared with ACATTCGG, GAACAGCC is lower in “PBM E-score” value: 0.164 for the first, -0.171 for the second.

First: CAGGTAGG
Second: AGAGTCAC
The “PBM E-score” value of the first is higher: -0.0364 for the first, -0.177 for the second.

Compared with ACTAGTAA, CACTTGGA is lower in “PBM E-score” value: 0.186 for the first, 0.0147 for the second.

First: CTCCCTCC
Second: CAACTGCG
The “PBM E-score” value of the first is lower: -0.2 for the first, -0.0654 for the second.

Compared with AACCATAC, TGACTACA is higher in “PBM E-score” value: 0.0437 for the first, 0.1 for the second.

Going from ATCCAGGA to CACTACGC, the “PBM E-score” value falls from -0.128 to -0.248.

First: GAGCAAAA
Second: TGGATCCA
The “PBM E-score” value of the first is higher: 0.0808 for the first, 0.0616 for the second.

Compared with GGCGAAAC, GTAGATGA is higher in “PBM E-score” value: -0.115 for the first, 0.0905 for the second.

Compared with AGTGTTAT, AATCTTAG is lower in “PBM E-score” value: 0.181 for the first, 0.00355 for the second.

First: GATCCCAC
Second: ATTTGCGC
The “PBM E-score” value of the first is lower: -0.0249 for the first, 0.0688 for the second.

Compared with CTGCCATA, AGCGCTAC is higher in “PBM E-score” value: -0.129 for the first, -0.0877 for the second.

Going from AAAGAGGG to GCGTTTGA, the “PBM E-score” value rises from -0.146 to 0.0588.

Going from AATATTGT to AGCATATC, the “PBM E-score” value falls from 0.292 to -0.0952.

First: TAACCATA
Second: AATCTAAC
The “PBM E-score” value of the first is lower: -0.00377 for the first, 0.0735 for the second.

First: ATGATCCA
Second: ACTACGTA
The “PBM E-score” value of the first is lower: 0.0289 for the first, 0.0693 for the second.

Going from ACACCATA to CCCATCTA, the “PBM E-score” value falls from 0.00796 to -0.0336.

Compared with CCCGAGAG, CCCAACTA is higher in “PBM E-score” value: -0.0293 for the first, 0.0875 for the second.

Compared with CTACGTGA, AATTCGCC is higher in “PBM E-score” value: -0.152 for the first, 0.15 for the second.

First: GCGGGCAA
Second: ATAGCTGC
The “PBM E-score” value of the first is lower: 0.0142 for the first, 0.0779 for the second.

First: CATTCGTC
Second: CTAAGTCA
The “PBM E-score” value of the first is lower: -0.0416 for the first, 0.0811 for the second.

Compared with GGTTGGCA, CGGGAACA is higher in “PBM E-score” value: -0.186 for the first, 0.0292 for the second.

Going from CCAAGCTA to AAATAGAG, the “PBM E-score” value rises from -0.221 to 0.128.

First: GACGCCAA
Second: AACGACAG
The “PBM E-score” value of the first is lower: -0.101 for the first, -0.0692 for the second.

First: GAAGAGTA
Second: CCCAGAAA
The “PBM E-score” value of the first is higher: 0.105 for the first, 0.0506 for the second.
